In PMC4336329 (PLoS ONE, 2015):
Out of some 310,000 compounds screened, about 2,200 (0.71%) showed an effect of 50% or more. Effects have a minus sign here. The list shows a part of the results.

Target: human ether-à-go-go-related gene (hERG) potassium channel (human, UniProt Q12809)
Test: primary screen, population patch clamp on CHO cells stably expressing hERG

Chain of human ether-à-go-go-related gene (hERG) potassium channel (Q12809 whole entry, looked up): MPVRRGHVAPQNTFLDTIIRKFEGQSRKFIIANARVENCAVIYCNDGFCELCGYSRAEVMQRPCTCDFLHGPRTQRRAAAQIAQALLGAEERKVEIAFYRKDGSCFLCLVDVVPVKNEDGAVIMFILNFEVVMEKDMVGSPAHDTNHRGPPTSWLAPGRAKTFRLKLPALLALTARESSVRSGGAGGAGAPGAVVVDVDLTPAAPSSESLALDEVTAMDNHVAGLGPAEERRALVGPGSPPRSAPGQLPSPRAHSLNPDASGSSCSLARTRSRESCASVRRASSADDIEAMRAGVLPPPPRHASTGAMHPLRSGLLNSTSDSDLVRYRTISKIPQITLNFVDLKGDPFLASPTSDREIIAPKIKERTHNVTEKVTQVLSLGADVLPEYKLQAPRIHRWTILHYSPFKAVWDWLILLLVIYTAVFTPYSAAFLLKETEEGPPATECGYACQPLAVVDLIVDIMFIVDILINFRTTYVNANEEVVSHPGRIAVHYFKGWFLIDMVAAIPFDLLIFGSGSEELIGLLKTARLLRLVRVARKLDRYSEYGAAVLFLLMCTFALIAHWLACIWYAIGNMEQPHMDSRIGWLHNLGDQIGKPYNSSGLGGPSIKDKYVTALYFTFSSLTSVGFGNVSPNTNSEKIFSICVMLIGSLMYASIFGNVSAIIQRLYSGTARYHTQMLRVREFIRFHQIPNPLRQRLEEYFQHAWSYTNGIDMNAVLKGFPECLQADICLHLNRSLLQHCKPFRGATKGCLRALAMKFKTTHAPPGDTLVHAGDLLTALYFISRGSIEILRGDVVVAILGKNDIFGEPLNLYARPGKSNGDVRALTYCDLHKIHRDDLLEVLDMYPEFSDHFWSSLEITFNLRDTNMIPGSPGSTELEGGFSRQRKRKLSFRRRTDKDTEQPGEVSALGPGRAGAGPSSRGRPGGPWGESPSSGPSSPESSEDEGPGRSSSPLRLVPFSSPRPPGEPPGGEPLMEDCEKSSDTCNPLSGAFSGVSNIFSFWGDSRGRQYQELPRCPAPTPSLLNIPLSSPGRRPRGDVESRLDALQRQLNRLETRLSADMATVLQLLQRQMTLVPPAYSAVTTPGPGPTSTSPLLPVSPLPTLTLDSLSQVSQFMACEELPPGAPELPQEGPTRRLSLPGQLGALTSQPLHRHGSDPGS

Row | Structure (SMILES) | hERG current change (%, negative = inhibition) at 1uM
1 | COc1cc2c(C(=O)N3CCN(Cc4ccc5c(c4)OCO5)CC3)cn(C)c(=O)c2cc1OC | -6.06%
2 | Cc1ccc(C)c(OCC(=O)NNC(=O)c2ccc(NC(=O)C3CC3)cc2)c1 | 9.74%
3 | COc1cc(OC)c(N(C)S(=O)(=O)c2cccc(C(=O)Nc3nc(C)cs3)c2)cc1Cl | 9.21%
4 | Cc1onc(-c2ccccc2)c1C(=O)NC(=S)NNC(=O)c1cccnc1 | 8.33%
5 | COc1cc(C(=O)O)nc(OC)n1 | 13.8%
6 | Cc1ccc(CN2CCN(Cc3cn(C)nc3-c3ccccc3)CC2CCO)o1 (stereo not shown) | 10.6%
7 | COc1ccc(-n2nc3c(=O)[nH][nH]c3cc2=O)cc1 | 8.95%
8 | On1nnc2ccc3ccccc3c21 | 10.9%
9 | COc1cc(CN(C(=S)NCC(=O)NC2CCCC2)C2CCCC2)cc(OC)c1OC | 2.16%
10 | O=C(C[n+]1ccccc1)N/N=C/c1cccc(Cl)c1Cl.[Cl-] | 10.7%
11 | NC(Cc1c[nH]c2ccccc12)C(=O)NCc1ccco1 (stereo not shown) | 3.41%
12 | CC(=O)NC1(C(Cl)(Cl)Cl)Oc2ccccc2O1 | 12.6%
13 | NC(=S)Nc1cccc2cc3ccccc3cc12 | 0.594%
14 | CC(C)(C)c1cc(-c2n[nH]c(=S)n2-c2ccccc2F)n[nH]1 | 14%
15 | Oc1ccccc1-[n+]1c(-c2ccccc2)cc(-c2ccccc2)cc1-c1ccccc1.[O-][Cl+3]([O-])([O-])[O-] | -40.5%
16 | O=C(CSc1nnc(CCc2ccccc2)n1-c1ccc(Cl)cc1)c1ccccc1 | 3.15%
17 | Cn1c(=O)c2c(nc(N3CCN(c4ccccn4)CC3)n2Cc2ccccc2Cl)n(C)c1=O | -18.2%
18 | CC1CC(C(F)(F)F)n2nc(C(=O)O)cc2N1 (stereo not shown) | -2.59%
19 | COC(=O)C1=C(c2ccc(OCc3ccccc3)cc2)C[C@@H]2CC[C@H]1N2C(=O)NCc1ccccc1 | 5.59%
20 | Cn1cc(C(=O)c2cccc(Cl)c2Cl)cc1C#N | 6.32%

Row | Structure (SMILES) | hERG current change (%, negative = inhibition) at 1uM
21 | CCOC(=O)N1CCN(C(=O)CNCc2cccs2)CC1.O=C(O)C(=O)O | 7.8%
22 | Cc1ccccc1NC(=S)N/N=C/c1ccc(O)cc1O | 8.9%
23 | Cc1ccc(CN2CCN(Cc3cccn3-c3nccs3)CC2CCO)cc1 (stereo not shown) | -79.7%
24 | COc1ccc(-c2nnc(SCC(=O)Nc3ccc(C)cc3)n2C)cc1 | 8.11%
25 | O=C(CN(Cc1ccccc1F)S(=O)(=O)c1ccc(Cl)cc1)NCC1CCCO1 (stereo not shown) | 5.49%
26 | Cc1ccc2oc(C(=O)NCc3ccc4c(c3)OCO4)c(C)c2c1 | 1.24%
27 | COc1ccc(Cl)cc1N1C(=O)C2CCCN2C1c1sccc1C (stereo not shown) | 7.3%
28 | CCCCSc1ccc2nc(-c3ccc(C#N)cc3)cn2c1 | 4.18%
29 | COC(=O)C1=C(c2cccc(OC)c2OC)C[C@@H]2CC[C@H]1N2C(=O)NCCCOC(C)C | 7.28%
30 | COc1cc2c(cc1OC)C(C1C(=O)CC(C)(C)CC1=O)N(C(=O)CCl)CC2 (stereo not shown) | -1.17%
31 | CCN1CCN(c2cc(C)c3cc(NC(=S)NCCCN4CCc5ccccc5C4)ccc3n2)CC1 | 9.86%
32 | CCc1cccc(C)c1NC(=O)N(C)C1CCCCC1 | 10.6%
33 | CC(=O)OC(C(=O)N1CCOCC1)c1c(F)cccc1F (stereo not shown) | 17%
34 | CC(C)c1ccc(NC(=O)CN(Cc2ccccc2)S(C)(=O)=O)cc1 | -5.31%
35 | O=C(CSc1n[nH]c(=O)n1C1CC1)Nc1ccccc1 | 17.8%
36 | CN1CCN(C(=S)c2ccc([N+](=O)[O-])cc2)CC1 | 16.3%
37 | O=C(C1CCN(C2CCN(C/C=C/c3ccccc3)CC2)CC1)N1CCOCC1 | -8.37%
38 | O=C(Nc1ccc(S(=O)(=O)N2CCOCC2)cc1)c1ccccc1 | 13.6%
39 | O=C(O)C(C(=O)Oc1ccccc1)C(C(=O)O)C(=O)Oc1ccccc1 (stereo not shown) | 14.4%
40 | Cc1cc(C)n(CCC(=O)Nc2ccc3c(c2)OCCO3)n1 | 15.4%

Row | Structure (SMILES) | hERG current change (%, negative = inhibition) at 1uM
41 | Br.CC(Oc1ccccc1)C(=O)NN1Cc2ccccc2C1=N (stereo not shown) | 21.9%
42 | Cc1ccccc1OCCNc1cc(N2CCCCC2)ccc1[N+](=O)[O-] | -3.62%
43 | C=CCOc1c(Br)cc(/C=N/O)cc1OCC | -1.88%
44 | O=[N+]([O-])c1ccc(NNS(=O)(=O)c2cc(Cl)ccc2Cl)nc1 | -44.4%
45 | O=C(/C=C/c1ccc(S(=O)(=O)N2CCOCC2)cc1)NCCCn1ccnc1 | 29.2%
46 | O=S(=O)(c1ccc(S(=O)(=O)N2CCC3(CC2)OCCO3)cc1)N1CCCC1 | 5.54%
47 | Cc1c(N=Cc2cc3c(cc2Cl)OCO3)c(=O)n(-c2ccccc2)n1C | 6.34%
48 | CC(C)N(c1nnc(N)s1)C(C)C | -2.87%
49 | O=C(CC1C(=O)NCCN1C(=O)Nc1ccccc1)Nc1ccc2c(c1)OCCO2 (stereo not shown) | 0.971%
50 | O=C(Nc1ccc(Cl)cn1)c1cccc2ccccc12 | 7.91%
51 | COc1ccccc1N1CCN(C(CNS(C)(=O)=O)c2cccnc2)CC1 (stereo not shown) | 14.1%
52 | Clc1ccc(Cn2cccc2C2=NCCO2)cc1 | 11%
53 | CCOC(=O)C(=O)NCC(c1ccco1)S(=O)(=O)c1cccs1 (stereo not shown) | 3.44%
54 | CC(=O)c1cccc(S(=O)(=O)Nc2cc(C(F)(F)F)ccc2N2CCOCC2)c1 | 16.4%
55 | O=C(CSC1=NCCS1)N1CCc2ccccc21 | 2.29%
56 | O=C(c1cc(C2CC2)on1)N1CCN(c2ccc(F)cc2)CC1 | -11%
57 | Cc1ccc(CN2CCN(Cc3c(C)nn(-c4ccc(F)cc4)c3C)CC2CCO)o1 (stereo not shown) | 6.24%
58 | O=C1CCN(C(=O)CCCn2c(=O)oc3ccccc32)CC1 | 16.8%
